The text below walks through data of ChEMBL document CHEMBL1201862, “PubChem BioAssay data set” (2004).

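1) Cells in 96-well plates. 2) Compound, 48 h, 5 concentrations. 3) Linear interpolation between surrounding doses. 4) Unreached endpoint = highest concentration. The concentration for 50% growth inhibition is given as GI50.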 Active and inactive are the calls of the source. Rule as the data show it: active = GI50 up to about 1.1 µM and inactive = higher. Some results are limits rather than exact numbers.

The assay relates to NCI-H322M. Description: growth of human tumour cells (NCI), 48 h.
As for `Nc1nc(Cl)cc(NCCCCO)n1`, the GI50 is inactive: > 100 µM.
For the compound `CCC(C)(C)c1ccc(Oc2cccc(C(=O)O)c2)cc1`, the GI50 is inactive: 82.4 µM.
As to `CC1=C(C#N)C(C#N)(C#N)C(NN(C)C)C1` (stereo not given), the GI50 is inactive: 37.2 µM.
To `CCOC(=O)C(C(=O)OCC)=C1SC(=N\c2ccccc2)/C(=N/c2ccccc2)N1c1ccccc1` belongs inactive: 65.9 µM; to `O=C1C2CC=CCC2C(=O)C12CCc1ccccc12` (stereo not given), inactive: > 100 µM.
With `CC1CC/C(=C\c2ccc(F)cc2)C2=C1C(c1ccc(F)cc1)n1c(s/c(=C\c3ccc(Cl)cc3)c1=O)=N2` (stereo not given), the GI50 was inactive: > 100 µM.
As to `COc1ccc(/C(C)=C2\CCCN(Cc3ccccc3)C2)cc1`, the GI50 is inactive: 32 µM.
Turning to `O=c1oc2ccccc2cc1-c1cn2c(n1)sc1ccccc12`, the GI50 was inactive: 2.54 µM.
In the case of `COc1ccc(/C=C2\N=C(c3ccccc3)N(C3Nc4cc5c(cc4S3)NC(N3C(=O)/C(=C/c4ccc(OC)cc4)N=C3c3ccccc3)S5)C2=O)cc1` (stereo not given), the GI50 was inactive: 93.3 µM.
Take `CC(=O)SC(C[N+](=O)[O-])c1ccc2c(c1)OCO2` (stereo not given): the GI50 was inactive: 16.5 µM.
Turning to `COc1cc(/C=C/C=C2\CC(C)C/C(=C\C=C\c3ccc(O)c(OC)c3)C2=O)ccc1O` (stereo not given), the GI50 is inactive: 14.4 µM.
On to `O=C1C=C(Nc2ccccc2C(=O)CC(=O)C(=O)Nc2cccc([N+](=O)[O-])c2)c2ccccc2C1=O`, for which the GI50 is inactive: 58.7 µM.
`N=C(N)NS(=O)(=O)c1ccc(NC(=O)c2ccc3nc4ccccc4c(Nc4ccc(S(=O)(=O)N=C(N)N)cc4)c3c2)cc1`: the GI50 is inactive: > 100 µM.
`CC(=O)N1N=C(c2c(O)ccc3ccccc23)CC1c1ccc(Cl)cc1` (stereo not given): the GI50 was inactive: 28.4 µM.
For the compound `CN(C)CCNC(=O)c1cccc(N(C)C(=O)c2ccccc2)c1[N+](=O)[O-]`, the GI50 was inactive: > 100 µM.
Turning to `C=CCn1c(=O)ccn(/C(=C/C(=O)OCC)C(=O)OCC)c1=O`, the GI50 was inactive: 40.4 µM.
As to `COc1cc(-c2oc3ccccc3c(=O)c2O)cc(OC)c1OC`, the GI50 was inactive: > 100 µM.
Take `CN1CCC(O)(OC(=O)C(c2ccccc2)C2(O)CCCC2)CC1` (stereo not given): the GI50 is inactive: > 100 µM.
Regarding `CCOC(=O)Cc1csc2[n+]1C(=O)/C(=C\c1cccc(Cl)c1Cl)S2`, the GI50 is inactive: 24.9 µM.
To `O=C1CSC(c2ccccc2)N1c1ccc(-n2c(-c3ccccc3)nc3ccccc3c2=O)cc1` (stereo not given) belongs inactive: > 88.1 µM; to `COc1ccc(NC(=S)N/N=C(\c2ccccc2)c2ccccn2)cc1`, active: < 0.01 µM; to `O=C(O)C(NCc1ccccc1)C(NCc1ccccc1)C(=O)O` (stereo not given), inactive: > 100 µM.
The result for `CCN(CC)C(=O)c1c(Cl)cc(N(CC)CC)oc1=O` reads inactive: > 100 µM.
For `CCOc1cccc(/C=N\c2ccccc2SSc2ccccc2/N=C\c2cccc(OCC)c2O)c1O`, the GI50 is inactive: 8.32 µM.
For `COC(=O)Cc1nc2ccccc2o1`, the GI50 is inactive: > 100 µM.
To `CCCCCC(=O)N[C@@H](c1ccco1)[C@@H](O)C(=O)O[C@H]1C[C@@]2(O)[C@@H](OC(=O)c3ccccc3)[C@@H]3[C@]4(OC(C)=O)CO[C@@H]4C[C@H](O)[C@@]3(C)C(=O)[C@H](OC(C)=O)C(=C1C)C2(C)C` belongs inactive: 16.9 µM.
As for `O=C(O)C12C=CC(C1)c1ccccc12` (stereo not given), the GI50 was inactive: > 100 µM.
On to `COC1=C(Br)C(O)C2(C=C1Br)CC(C(=O)NCCCCNC(=O)C1=NOC3(C=C(Br)C(OC)=C(Br)C3O)C1)=NO2` (stereo not given), for which the GI50 is inactive: 30.1 µM.
For the compound `CC1CCC2C(C(=O)O[C@H]3C4C=CO[C@@H](OC5OC(CO)C(O)C(O)C5O)C4[C@@]4(CO)O[C@@H]34)=CO[C@@H](OC3OC(CO)C(O)C(O)C3O)C12` (stereo not given in full), the GI50 is inactive: > 10 µM.
Take `COc1ccc(/C=C/C(=O)/C=C/c2ccc(OC)cc2)cc1`: the GI50 is inactive: > 100 µM.
